Consider 63 sequences from article PMC12820563.

This is one part of the list. The list includes weakly bound sequences.

For the experiment, the target named is T1, MBP-FoxP3dN (UniProt Q99JB6).
T1 sequence: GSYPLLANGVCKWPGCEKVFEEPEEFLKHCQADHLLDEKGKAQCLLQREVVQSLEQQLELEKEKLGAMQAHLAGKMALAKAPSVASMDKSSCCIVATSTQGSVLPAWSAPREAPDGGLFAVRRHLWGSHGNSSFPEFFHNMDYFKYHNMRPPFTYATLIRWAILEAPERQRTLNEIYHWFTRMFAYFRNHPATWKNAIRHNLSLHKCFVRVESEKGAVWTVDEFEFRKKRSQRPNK
Kind of experiment: PD-seq (MBP pull-down with sequencing). As to conditions: 20 mM Tris-HCl pH 7.5, 100 mM NaCl, 1.5 mM MgCl2, 0.4 uM protein, 0.1 uM dsDNA library, 30 min, room temperature, amylose pull-down; high values mean tight binding; double strand, one strand shown.
Consider “GATGATTGTTCTCCCAGCTGATGAATTGTTTCTTTCGAGTAAACAAATTTTCCTAATCTTTCTGTTCAAGCGCCATCTAC”, for which the binding signal (RPM ratio (pull-down/input)) turned out to be 1.93.
In the case of “GATGATTGTTCTCCCAGCTGATGAATTCTGAATCTCGAGTAAACAAATTTTCCTAATCTTTCTGTTCAAGCGCCATCTAC” it was 1.83; in that of “GATGATTGTTCTCCCAGCTGATGAATTTCGTTAGTCGAGTAAACAAATTTTCCTAATCTTTCTGTTCAAGCGCCATCTAC”, 1.43.
With “GATGATTGTTCTCCCAGCTGATGAATTGCACGGGTCGAGTAAACAAATTTTCCTAATCTTTCTGTTCAAGCGCCATCTAC” the figure was 0.514; with “GATGATTGTTCTCCCAGCTGATGAATTTAAGCGCTCGAGTAAACAAATTTTCCTAATCTTTCTGTTCAAGCGCCATCTAC”, 0.4; with “GATGATTGTTCTCCCAGCTGATGAATTGATCCGGTCGAGTAAACAAATTTTCCTAATCTTTCTGTTCAAGCGCCATCTAC”, 0.202.
In the case of “GATGATTGTTCTCCCAGCTGATGAATTTGCCGCTTCGAGTAAACAAATTTTCCTAATCTTTCTGTTCAAGCGCCATCTAC” it was 0.877.
Turning to “GATGATTGTTCTCCCAGCTGATGAATTCCCCCCGTCGAGTAAACAAATTTTCCTAATCTTTCTGTTCAAGCGCCATCTAC”, the binding signal (RPM ratio (pull-down/input)) was 0.208.
With “GATGATTGTTCTCCCAGCTGATGAATTAGCCTGGTCGAGTAAACAAATTTTCCTAATCTTTCTGTTCAAGCGCCATCTAC” the figure was 0.399.
With “GATGATTGTTCTCCCAGCTGATGAATTCCGACGTTCGAGTAAACAAATTTTCCTAATCTTTCTGTTCAAGCGCCATCTAC” the figure was 0.48.
With “GATGATTGTTCTCCCAGCTGATGAATTTAGTTACTCGAGTAAACAAATTTTCCTAATCTTTCTGTTCAAGCGCCATCTAC” the figure was 3.04; with “GATGATTGTTCTCCCAGCTGATGAATTCGCGTATTCGAGTAAACAAATTTTCCTAATCTTTCTGTTCAAGCGCCATCTAC”, 1.64; with “GATGATTGTTCTCCCAGCTGATGAATTACTTTTTTCGAGTAAACAAATTTTCCTAATCTTTCTGTTCAAGCGCCATCTAC”, 0.47.
Regarding “GATGATTGTTCTCCCAGCTGATGAATTTAATCTCTCGAGTAAACAAATTTTCCTAATCTTTCTGTTCAAGCGCCATCTAC”, the binding signal (RPM ratio (pull-down/input)) stood at 0.421.
Regarding “GATGATTGTTCTCCCAGCTGATGAATTCTTTCGGTCGAGTAAACAAATTTTCCTAATCTTTCTGTTCAAGCGCCATCTAC”, the binding signal (RPM ratio (pull-down/input)) came out at 0.196.
In the case of “GATGATTGTTCTCCCAGCTGATGAATTATAAGGGTCGAGTAAACAAATTTTCCTAATCTTTCTGTTCAAGCGCCATCTAC” it was 0.258; in that of “GATGATTGTTCTCCCAGCTGATGAATTTGACTCCTCGAGTAAACAAATTTTCCTAATCTTTCTGTTCAAGCGCCATCTAC”, 0.57.
With “GATGATTGTTCTCCCAGCTGATGAATTGGAGAGTTCGAGTAAACAAATTTTCCTAATCTTTCTGTTCAAGCGCCATCTAC” the figure was 0.343.
In the case of “GATGATTGTTCTCCCAGCTGATGAATTGCTCAGGTCGAGTAAACAAATTTTCCTAATCTTTCTGTTCAAGCGCCATCTAC” it was 0.335; in that of “GATGATTGTTCTCCCAGCTGATGAATTTGTGCTCTCGAGTAAACAAATTTTCCTAATCTTTCTGTTCAAGCGCCATCTAC”, 2.89.
As for “GATGATTGTTCTCCCAGCTGATGAATTTAGTGAGTCGAGTAAACAAATTTTCCTAATCTTTCTGTTCAAGCGCCATCTAC”, the binding signal (RPM ratio (pull-down/input)) was 1.04.
With “GATGATTGTTCTCCCAGCTGATGAATTTCCTTCTTCGAGTAAACAAATTTTCCTAATCTTTCTGTTCAAGCGCCATCTAC” the figure was 0.258.
With “GATGATTGTTCTCCCAGCTGATGAATTAGTAATCTCGAGTAAACAAATTTTCCTAATCTTTCTGTTCAAGCGCCATCTAC” the figure was 1.15.
In the case of “GATGATTGTTCTCCCAGCTGATGAATTAATCGTTTCGAGTAAACAAATTTTCCTAATCTTTCTGTTCAAGCGCCATCTAC” it was 0.808.
With “GATGATTGTTCTCCCAGCTGATGAATTATTTAAATCGAGTAAACAAATTTTCCTAATCTTTCTGTTCAAGCGCCATCTAC”, the binding signal (RPM ratio (pull-down/input)) stood at 0.323.
With “GATGATTGTTCTCCCAGCTGATGAATTTCTTGTATCGAGTAAACAAATTTTCCTAATCTTTCTGTTCAAGCGCCATCTAC” the figure was 0.65; with “GATGATTGTTCTCCCAGCTGATGAATTAAACCTCTCGAGTAAACAAATTTTCCTAATCTTTCTGTTCAAGCGCCATCTAC”, 0.339; with “GATGATTGTTCTCCCAGCTGATGAATTAGGTTCTTCGAGTAAACAAATTTTCCTAATCTTTCTGTTCAAGCGCCATCTAC”, 0.824.
In the case of “GATGATTGTTCTCCCAGCTGATGAATTGATTTGCTCGAGTAAACAAATTTTCCTAATCTTTCTGTTCAAGCGCCATCTAC”, the binding signal (RPM ratio (pull-down/input)) came to 2.62.
With “GATGATTGTTCTCCCAGCTGATGAATTGTTGGGATCGAGTAAACAAATTTTCCTAATCTTTCTGTTCAAGCGCCATCTAC” the figure was 1.92.
In the case of “GATGATTGTTCTCCCAGCTGATGAATTGTCCCTGTCGAGTAAACAAATTTTCCTAATCTTTCTGTTCAAGCGCCATCTAC”, the binding signal (RPM ratio (pull-down/input)) amounted to 0.319.
With “GATGATTGTTCTCCCAGCTGATGAATTTGAATCGTCGAGTAAACAAATTTTCCTAATCTTTCTGTTCAAGCGCCATCTAC” the figure was 0.521; with “GATGATTGTTCTCCCAGCTGATGAATTCTTACGCTCGAGTAAACAAATTTTCCTAATCTTTCTGTTCAAGCGCCATCTAC”, 0.256; with “GATGATTGTTCTCCCAGCTGATGAATTGGGCTTCTCGAGTAAACAAATTTTCCTAATCTTTCTGTTCAAGCGCCATCTAC”, 1.57.
In the case of “GATGATTGTTCTCCCAGCTGATGAATTCGATTAGTCGAGTAAACAAATTTTCCTAATCTTTCTGTTCAAGCGCCATCTAC” it was 1.76; in that of “GATGATTGTTCTCCCAGCTGATGAATTGGCCAAGTCGAGTAAACAAATTTTCCTAATCTTTCTGTTCAAGCGCCATCTAC”, 0.214; in that of “GATGATTGTTCTCCCAGCTGATGAATTTGTGCGATCGAGTAAACAAATTTTCCTAATCTTTCTGTTCAAGCGCCATCTAC”, 1.1.
For the sequence “GATGATTGTTCTCCCAGCTGATGAATTGAACCAATCGAGTAAACAAATTTTCCTAATCTTTCTGTTCAAGCGCCATCTAC”, the binding signal (RPM ratio (pull-down/input)) is 0.376.
In the case of “GATGATTGTTCTCCCAGCTGATGAATTTGTTCGCTCGAGTAAACAAATTTTCCTAATCTTTCTGTTCAAGCGCCATCTAC” it was 2.28; in that of “GATGATTGTTCTCCCAGCTGATGAATTAACGTTGTCGAGTAAACAAATTTTCCTAATCTTTCTGTTCAAGCGCCATCTAC”, 0.634; in that of “GATGATTGTTCTCCCAGCTGATGAATTCCGGATATCGAGTAAACAAATTTTCCTAATCTTTCTGTTCAAGCGCCATCTAC”, 0.335.
With “GATGATTGTTCTCCCAGCTGATGAATTAGGGTACTCGAGTAAACAAATTTTCCTAATCTTTCTGTTCAAGCGCCATCTAC” the figure was 0.74; with “GATGATTGTTCTCCCAGCTGATGAATTGCGGCCTTCGAGTAAACAAATTTTCCTAATCTTTCTGTTCAAGCGCCATCTAC”, 2.8.
In the case of “GATGATTGTTCTCCCAGCTGATGAATTGCTGCCTTCGAGTAAACAAATTTTCCTAATCTTTCTGTTCAAGCGCCATCTAC” it was 2.8; in that of “GATGATTGTTCTCCCAGCTGATGAATTAGACACCTCGAGTAAACAAATTTTCCTAATCTTTCTGTTCAAGCGCCATCTAC”, 0.547.
Turning to “GATGATTGTTCTCCCAGCTGATGAATTATGACCCTCGAGTAAACAAATTTTCCTAATCTTTCTGTTCAAGCGCCATCTAC”, the binding signal (RPM ratio (pull-down/input)) came out at 0.578.
On to “GATGATTGTTCTCCCAGCTGATGAATTCTGTGACTCGAGTAAACAAATTTTCCTAATCTTTCTGTTCAAGCGCCATCTAC”, for which the binding signal (RPM ratio (pull-down/input)) amounted to 1.37.
In the case of “GATGATTGTTCTCCCAGCTGATGAATTCCTTCCCTCGAGTAAACAAATTTTCCTAATCTTTCTGTTCAAGCGCCATCTAC” it was 0.212; in that of “GATGATTGTTCTCCCAGCTGATGAATTTAACACGTCGAGTAAACAAATTTTCCTAATCTTTCTGTTCAAGCGCCATCTAC”, 0.655; in that of “GATGATTGTTCTCCCAGCTGATGAATTGGGAACCTCGAGTAAACAAATTTTCCTAATCTTTCTGTTCAAGCGCCATCTAC”, 0.26.
As for “GATGATTGTTCTCCCAGCTGATGAATTATGAGTCTCGAGTAAACAAATTTTCCTAATCTTTCTGTTCAAGCGCCATCTAC”, the binding signal (RPM ratio (pull-down/input)) was 2.02.
With “GATGATTGTTCTCCCAGCTGATGAATTTAAGACGTCGAGTAAACAAATTTTCCTAATCTTTCTGTTCAAGCGCCATCTAC” the figure was 0.273; with “GATGATTGTTCTCCCAGCTGATGAATTACTACCATCGAGTAAACAAATTTTCCTAATCTTTCTGTTCAAGCGCCATCTAC”, 0.537; with “GATGATTGTTCTCCCAGCTGATGAATTCGCCAACTCGAGTAAACAAATTTTCCTAATCTTTCTGTTCAAGCGCCATCTAC”, 0.292.
With “GATGATTGTTCTCCCAGCTGATGAATTTTCGCGATCGAGTAAACAAATTTTCCTAATCTTTCTGTTCAAGCGCCATCTAC” the figure was 0.483; with “GATGATTGTTCTCCCAGCTGATGAATTGCGGTTGTCGAGTAAACAAATTTTCCTAATCTTTCTGTTCAAGCGCCATCTAC”, 1.84.
With “GATGATTGTTCTCCCAGCTGATGAATTAACAACTTCGAGTAAACAAATTTTCCTAATCTTTCTGTTCAAGCGCCATCTAC” the figure was 0.722.
With “GATGATTGTTCTCCCAGCTGATGAATTTTGTATCTCGAGTAAACAAATTTTCCTAATCTTTCTGTTCAAGCGCCATCTAC”, the binding signal (RPM ratio (pull-down/input)) was found to be 5.89.
Take “GATGATTGTTCTCCCAGCTGATGAATTCGCATTCTCGAGTAAACAAATTTTCCTAATCTTTCTGTTCAAGCGCCATCTAC”: the binding signal (RPM ratio (pull-down/input)) stood at 4.89.
Consider “GATGATTGTTCTCCCAGCTGATGAATTATTGATTTCGAGTAAACAAATTTTCCTAATCTTTCTGTTCAAGCGCCATCTAC”, for which the binding signal (RPM ratio (pull-down/input)) was determined as 1.68.
With “GATGATTGTTCTCCCAGCTGATGAATTGCCCTTATCGAGTAAACAAATTTTCCTAATCTTTCTGTTCAAGCGCCATCTAC” the figure was 0.667.
In the case of “GATGATTGTTCTCCCAGCTGATGAATTTTACATATCGAGTAAACAAATTTTCCTAATCTTTCTGTTCAAGCGCCATCTAC” it was 0.455; in that of “GATGATTGTTCTCCCAGCTGATGAATTCAACTTTTCGAGTAAACAAATTTTCCTAATCTTTCTGTTCAAGCGCCATCTAC”, 0.341.
